We go through 130 compounds from article PMC9574860, “Chemical Toolkit for PARK7: Potent, Selective, and High-Throughput” (Journal of Medicinal Chemistry, 2022).

About 400 (5.1%) of roughly 7,900 compounds showed an effect of 50% or more. The list shows a part of the results.

In this test the target is Parkinson's disease protein 7 (PARK7/DJ1) (human, UniProt Q99497). The experiment in a line: primary screen, percent inhibition; read as competition with a fluorescent probe by fluorescence polarization; higher = more effect of the substance. The following applies: 100 µM. The method in brief: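 Covalent fragments at 100 μM final were incubated 2 h with 0.2 μM PARK7, then 20 nM probe JYQ-107 added for a further 2 h. Fluorescence polarization read at 480/520 nm; relative FP loss versus reference controls gave remaining enzyme activity.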
Sequence of Parkinson's disease protein 7 (PARK7/DJ1) (Q99497 whole entry, looked up, the tested form may be a part): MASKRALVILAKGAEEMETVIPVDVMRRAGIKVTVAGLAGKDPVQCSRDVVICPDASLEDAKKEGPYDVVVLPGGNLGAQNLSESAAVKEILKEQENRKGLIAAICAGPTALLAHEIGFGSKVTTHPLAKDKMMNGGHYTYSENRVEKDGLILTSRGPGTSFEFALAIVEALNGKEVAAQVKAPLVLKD
As to `Cc1cc(C=C(C#N)C(=O)NCC2CCCO2)ccc1F` (stereo not shown), the Inhibition % turned out to be 2.68%.

Regarding `C=CC(=O)N1CCN(C(=O)c2c(F)cccc2F)CC1`, the Inhibition % is 6.23%. To `C=CCNC(=O)C(C#N)=Cc1ccc(SC)cc1` belongs 11.7%; to `C=CC(=O)Nc1ccc(F)c(F)c1`, 7.82%; to `O=C(CCl)C1CCCCO1` (stereo not shown), 94.5%. For `C=CC(=O)N[C@@H]1CC(=O)N(C)[C@H]1c1cnn(C)c1C`, the Inhibition % amounted to 12.7%. For `O=S(=O)(F)c1ccc(N2CCc3ccc(F)cc32)nc1`, the Inhibition % is 8.42%.

Turning to `Cc1ccn(S(=O)(=O)c2ccc(F)c(C)c2)n1`, the Inhibition % was found to be 6.8%. To `CC(NC(=O)CCl)c1ccc(Cl)cc1Cl` (stereo not shown) belongs 6.87%; to `N#CC1(CC2CO2)CC1` (stereo not shown), 4.43%.

Consider `Cc1nc(S)nc(O)c1CCO`, for which the Inhibition % worked out at 9.44%.

Consider `O=C(O)c1ccnc(S)c1`, for which the Inhibition % was found to be 11.8%. Turning to `O=C(CCl)N1c2ccccc2OCC1c1ccccc1` (stereo not shown), the Inhibition % turned out to be 28.9%. To `O=C(CCN1C(=O)CCC1=O)N1CCCCCCC1` belongs 1.96%; to `C=CC(=O)NCc1ncc2c(n1)CCC2`, 10.9%. To `Cc1ccc(NC(=O)CC2OCCCO2)cc1F` belongs 3.78%; to `O=C(CCl)c1ccoc1`, 76.6%. On to `C=CC(=O)NCc1c(C)nc(C)nc1C`, for which the Inhibition % stood at 10.4%. To `O=C(CCl)C1CCCN1C(=O)C(F)(F)F` (stereo not shown) belongs 80.8%. To `CC(=O)N(c1cc(C)cc(C)c1)C1C=CS(=O)(=O)C1` (stereo not shown) belongs 1.59%; to `CC1CCCCC1Nc1nccc(C#N)n1` (stereo not shown), 4.22%; to `CN1CCC(n2c(S)nc3ccccc3c2=O)C1=O` (stereo not shown), 17.4%. To `C=CC(=O)NC1CCN(c2nccs2)CC1` belongs 9.77%. As to `C=CC(=O)N1CCC2(CC1)CC2N(C)Cc1nccs1` (stereo not shown), the Inhibition % is given as 2.97%.

Take `COCCn1c(C)cc(C=C(C#N)C(=O)O)c1C`: the Inhibition % was 3.03%. To `COc1ccc(Cl)cc1S(=O)(=O)n1ccnc1` belongs 8%; to `N#Cc1cn(CCS)c(=O)[nH]c1=O`, 75.1%; to `C=CC(=O)NC1CCC(N2CCCS2(=O)=O)CC1` (stereo not shown), 5.22%. To `N#Cc1nccn1Cc1ccc(F)cc1F` belongs 68.3%; to `N#CC(=Cc1ccc(Cl)s1)C(N)=O`, 12.7%; to `Cn1ncc2c(=O)[nH]c(S)nc21`, 4.52%.

Regarding `O=C1CCN1c1cccc(O)c1`, the Inhibition % is recorded as 10.1%. To `C=CC(=O)NC1CCSCC1` belongs 3.21%; to `C=CC(=O)NCC1CCCC1(C)C` (stereo not shown), 13.6%. To `SCc1coc(-c2ccccc2)n1` belongs 0.694%. To `Cc1cccc(NC(=O)Cn2cnc(C#N)n2)c1C` belongs 2.38%. Turning to `CC1(C)OB(c2ccsc2C(F)(F)F)OC1(C)C`, the Inhibition % worked out at 6.88%. To `C=CC(=O)N1CCC(F)(F)C(C)C1` (stereo not shown) belongs 10.1%; to `C=CC(=O)NC1(c2ncc(Br)cn2)CCC1`, 0.851%. As for `C=CC(=O)NC1CC2(CCN(C)CC2)Oc2ccccc21` (stereo not shown), the Inhibition % worked out at 9.28%. To `O=c1onc(-c2ncccn2)n1Cc1cccc(F)c1` belongs 7.68%; to `C=CC(=O)Nc1cn(C)nc1C1CC1`, 10%. For `CC(=O)c1ccc(N2CCN(C(=O)CCl)CC2)c(F)c1`, the Inhibition % is 11%.

Regarding `C=CC(=O)N[C@@H]1CCO[C@@H](c2cccs2)C1` (racemic), the Inhibition % is listed as 9.83%. To `CCC1CN(C(=O)CN2CCSC2=O)CCO1` (stereo not shown) belongs 0.338%; to `C=CC(=O)N1CCOc2c(C)cc(C)cc21`, 11.5%.

Take `C=CC(=O)N1CCC2(CCOCC2)CC1`: the Inhibition % stood at 5.66%.

On to `C=CC(=O)NC1CCN(c2ccccc2)C1` (stereo not shown), for which the Inhibition % came out at 20.1%. `Cc1ccc(-n2cc(SC(=O)N(C)C)cn2)cc1`: the Inhibition % was 6.2%.

Consider `CC(Cc1cccs1)NC(=O)c1cccnc1S` (stereo not shown), for which the Inhibition % stood at 5.98%.

With `C=CC(=O)N(Cc1ccccc1)c1cnn(C)c1`, the Inhibition % is given as 29.9%. To `C=CC(=O)Nc1ccc2c(c1)N(C(C)=O)CCS2` belongs 11.2%; to `COc1ccc(S(=O)(=O)n2nc(C)cc2C)c(C)c1C`, -0.469%. To `CCOC(=O)c1ccc(NC(=O)CCl)cc1` belongs 56.5%; to `N#Cc1nc2cc(N)ccc2s1`, 55.6%; to `C=CC(=O)N1CCCC(c2nncn2C)C1` (stereo not shown), 20.6%. To `Sc1nccn2ccnc12` belongs 5.79%; to `COc1ccc(C(C)C)cc1S(=O)(=O)n1nc(C)cc1C`, 3.48%. As for `O=S(=O)(C=Cc1ccccc1)NCc1ccco1`, the Inhibition % amounted to 14.6%. With `CCc1nc(Cl)cc(C#N)n1`, the Inhibition % amounted to 7.01%.

For the compound `C=CC(=O)N1CC(C2CS(=O)(=O)C2)C1`, the Inhibition % came out at 9.56%.

With `N#Cc1cccc(Oc2ccc(CCO)cc2)n1`, the Inhibition % was found to be 24.6%.

Regarding `C=CC(=O)NCC(c1ccsc1)N(C)C` (stereo not shown), the Inhibition % is recorded as 2.98%. In the case of `O=C(O)CCn1nc(-c2cccs2)oc1=O`, the Inhibition % is listed as 3.57%. To `C=CC(=O)NC1CCCC12CCOCC2` (stereo not shown) belongs 10.3%; to `CN(C)C(=O)Sc1cnn(-c2ccccc2F)c1`, 6.74%. As for `CC(C)c1ccccc1OCC1CO1` (stereo not shown), the Inhibition % is given as -4.39%. To `CC(C)[C@H]1OCC[C@@H]1CNc1cccc(C#N)n1` belongs 5.45%; to `O=C1CNC(=O)N1CCCCl`, 9.1%; to `C=CC(=O)N1CCOCC1CC` (stereo not shown), 7.47%. To `CC(C)Cn1c(N)c(C(=O)CCl)c(=O)[nH]c1=O` belongs 16.4%; to `Cc1cc(NC(=O)CCl)n(-c2ccccc2F)n1.Cl`, 23.2%; to `N#Cc1ccc(NC(=O)CCl)cc1Cl`, 29.1%.

On to `O=C(CCl)N(Cc1ccco1)C1=CCCCC1`, for which the Inhibition % worked out at 23.3%.

As to `N#CC(C(N)=O)=C1CCCC1`, the Inhibition % turned out to be 8.77%. To `Cc1cc(S(=O)(=O)n2ccnc2)c(Cl)cc1Cl` belongs 7.16%; to `O=C(CCCCl)N1CCCCC1`, 2.86%.

With `CC(C)C(=O)Nc1ccc(CNC(=O)n2ccnc2)cc1`, the Inhibition % is on record as 0.0136%. To `OB(O)c1cc(F)ccc1OCc1ccccn1` belongs 6.52%; to `C=CC(=O)NC1(c2nc(C)cs2)CCCC1`, 5.93%; to `C=CC(=O)N1CCCc2c(NC(C)=O)cccc21`, 13.5%.

As to `O=C1C(NC(=O)C2(O)CCC2)CN1c1ccccc1` (stereo not shown), the Inhibition % is given as 6.49%. To `C=CC(=O)NCc1noc2c1CCCC2` belongs 4.47%; to `C=CC(=O)NC1(c2cccc(OC)c2)CC1`, 2.67%. To `CN(C)C(=O)C(C)(C)NS(=O)(=O)C=Cc1ccccc1` belongs 6.17%; to `C=CC(=O)N1CCC(c2ccc(OC)cc2)C1` (stereo not shown), 6.39%. Take `CC1(C)OB(c2cccc3occc23)OC1(C)C`: the Inhibition % was 10.2%. `C=CC(=O)NCC1CCN(C)C1c1cccs1` (stereo not shown): the Inhibition % is recorded as 8.73%. To `C=CC(=O)NCC1CCC(=C)CC1` belongs 7.7%. To `CCn1c(S)nc2scc(C)c2c1=O` belongs 3.15%.

Consider `CN(C)Cc1ccc(B(O)O)cc1F.Cl`, for which the Inhibition % stood at 5.41%.

As to `Cc1ccc(C#N)nc1NCC1CCSCC1`, the Inhibition % is recorded as 3.23%. To `CCc1nc(C#N)c(N2CCN(c3ccccc3)CC2)o1` belongs 2.75%; to `c1ccc2c(c1)ncn2CCC1OCCO1`, 1.92%; to `C=CC(=O)Nc1ccccc1C1CCC(=O)N1` (stereo not shown), 7.72%. To `Cc1ccc(Oc2ccc(C#N)nn2)cc1F` belongs 11.7%. Take `COc1ccnc(C#N)n1`: the Inhibition % was 8.62%. To `COC(OC)C1CCCCC1=O` (stereo not shown) belongs 2.2%; to `O=C(CCl)NCCCc1ccccc1`, 8.89%; to `CCN(CC)S(=O)(=O)c1ccc(NC(=O)CCl)cc1`, 90.5%.

On to `C=CC(=O)NC(c1nccs1)C1CC1` (stereo not shown), for which the Inhibition % turned out to be 12.2%. To `Cc1[nH]c(C#N)cc1C(=O)O` belongs 6.7%. To `N#Cc1cccc(-n2ccnc2)n1` belongs 9.34%; to `c1cc2c(cc1C1CO1)OCO2` (stereo not shown), -1.48%; to `N#CN(CCn1cncn1)c1ccccc1`, 6.47%. To `O=C(CC1C=CS(=O)(=O)C1)NC1CCOc2ccccc21` (stereo not shown) belongs 8.51%; to `CN(CCCl)Cc1ccc(F)cc1`, 7.18%.

For the compound `O=C(CCl)Nc1ccc2[nH]c(C(F)(F)F)nc2c1`, the Inhibition % turned out to be 45%. To `C=CC(=O)N1CCCc2sccc2C1` belongs 7.37%; to `Cc1cc(Cl)c(Cl)cc1S(=O)(=O)n1cccn1`, -3.64%; to `Cc1cc(C)nc(S)n1`, 17.2%.

On to `C=CC(=O)N1CCC(c2cccnc2OC)C1` (stereo not shown), for which the Inhibition % is listed as 10.3%.

`CC1(C)OB(c2cccc(C(F)C(F)(F)F)c2)OC1(C)C` (stereo not shown): the Inhibition % is -2.51%. To `Cc1ccc(CN2CCCCC2C2OCCO2)o1` (stereo not shown) belongs 7.93%; to `Cc1ccc(N2C(=O)CN=C2S)c(C)c1`, 9.16%; to `O=C(CCCl)Nc1ccc(Cl)cc1`, 9.16%. To `CCc1cccc(C)c1NC(=O)CCl` belongs 3.92%; to `O=C(O)Cc1ccc(NC(=O)CCl)cc1`, 43.8%; to `COc1cc(C=C(C#N)C(=O)NC(C)C)sn1`, 28.9%.

Consider `N#Cc1cncc(N2CCCCC2C2CCC2)n1` (stereo not shown), for which the Inhibition % came to 15.3%. To `C=CC(=O)NC(C)C(=O)N1CCOCC1` (stereo not shown) belongs 11.8%; to `C=CC(=O)Nc1ccc(OC2CCN(C)CC2)nc1`, 11.8%; to `CCCC(NC(=O)CCl)c1ccccc1` (stereo not shown), 14.5%. To `C1CNCC(C2OCCO2)C1` (stereo not shown) belongs 10.9%; to `Clc1cnc(C2OCCO2)s1`, 10.9%; to `C=CC(=O)NC1CCc2ccccc2CC1`, 5.66%.

`O=C(CCl)NCCc1ccsc1`: the Inhibition % was 27.9%. To `CCn1c(C)cc(C(=O)CCl)c1C` belongs 56%; to `O=C(CN1CCSC1=O)Nc1nc2c(s1)CCCCC2`, 12.6%. Turning to `CC(c1ccsc1)N1CCN(c2ccc(C#N)nc2)CC1` (stereo not shown), the Inhibition % is 7.22%.
